{"source": "PubChem BioAssay AID1468", "about": "(National Center for Advancing Translational Sciences (NCATS), 2008)", "note": "About 1,100 (0.39%) of roughly 280,000 compounds were called active. Inconclusive means that the source gave no clear call. Such entries were picked first, then a sample of the others. The call rests on the fitted dose curve; in most records, active means well fitted inhibition curve with a large enough effect; inconclusive means small, poorly fitted or top-dose-only effect, or effect the other way; inactive means flat fitted curve, though single readings scatter. No potency is given beside an inconclusive call; the fits are too rough. Potency means the concentration at half of the fitted maximal effect; tags describe the fitted curve by direction and shape."}
{"target": "Microtubule-associated protein tau (Homo sapiens) (UniProt P10636)", "sequence (P10636 whole entry, looked up)": "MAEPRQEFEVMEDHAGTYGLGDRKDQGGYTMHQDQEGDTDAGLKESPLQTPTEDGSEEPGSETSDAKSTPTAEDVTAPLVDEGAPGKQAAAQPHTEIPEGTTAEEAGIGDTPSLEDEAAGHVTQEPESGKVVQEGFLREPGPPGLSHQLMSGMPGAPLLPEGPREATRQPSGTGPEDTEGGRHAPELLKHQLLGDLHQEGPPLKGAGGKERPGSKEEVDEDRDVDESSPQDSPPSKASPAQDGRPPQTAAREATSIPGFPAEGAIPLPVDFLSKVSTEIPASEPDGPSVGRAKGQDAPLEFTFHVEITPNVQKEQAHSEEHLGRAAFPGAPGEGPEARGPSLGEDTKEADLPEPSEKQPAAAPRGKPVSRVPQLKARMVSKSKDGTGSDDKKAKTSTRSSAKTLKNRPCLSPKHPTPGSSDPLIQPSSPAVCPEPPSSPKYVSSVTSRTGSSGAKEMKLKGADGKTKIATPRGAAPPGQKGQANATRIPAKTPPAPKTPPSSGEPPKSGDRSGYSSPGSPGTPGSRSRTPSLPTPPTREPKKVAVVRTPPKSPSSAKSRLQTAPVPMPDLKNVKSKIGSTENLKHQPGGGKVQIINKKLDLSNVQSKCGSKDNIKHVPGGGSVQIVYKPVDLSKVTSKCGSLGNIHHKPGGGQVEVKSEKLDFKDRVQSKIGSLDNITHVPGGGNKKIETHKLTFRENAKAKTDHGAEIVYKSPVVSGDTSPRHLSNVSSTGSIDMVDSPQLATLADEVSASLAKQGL", "assay": "qHTS for Inhibitors of Tau Fibril Formation, Fluorescence Polarization; further: nearly all actives have a fitted effect of over 55% in size", "conditions": "K18 P301L tau heparin fibrillization, Alexa594 FP, 6 h; series mostly up to 57.7 µM", "summary_of_the_method": "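Compound effects on tau fibrillization are measured by Alexa 594 fluorescence polarization (ex 555, em 632 nm). K18 P301L tau is used at 15 uM with 0.24 uM labeled tracer, and 20 uM heparin induces aggregation over 6 hr at 37 C.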"}
{"molecule": "O=C1N(Cc2cccc(Cl)c2)C[C@@H]2C[C@@H](c3c[nH]c4ccccc34)N3CCC[C@@]123", "Potency": "inactive"}
{"molecule": "Cc1ccc2cc(C=C(C#N)C#N)c(N3CCCCC3)nc2c1", "Potency": "inconclusive [inhibitor, partial curve]"}
{"molecule": "COc1cc(OC)c(OC)cc1/C=C/c1nc2cc3ccccc3cc2c(=O)n1-c1ccc(Cl)cc1", "Potency": "inconclusive [activator, partial curve, poor fit]"}
{"molecule": "O=S(=O)(Nc1cccc(S(=O)(=O)N2CCOCC2)c1)c1ccc2c(c1)OCCO2", "Potency": "inactive"}
{"molecule": "Cc1ccc(Cl)cc1N1CCN(CC(O)COC(C)C)CC1", "note": "(centres undefined)", "Potency": "inactive"}
{"molecule": "Cc1cccc(NC(=O)c2oc3ccccc3c2NC(=O)Cc2coc3c(C)c(C)ccc23)c1", "Potency": "inconclusive [inhibitor, partial curve]"}
{"molecule": "Cc1ccc(C)n1-c1sc2c(c1C#N)CCC(C)C2", "note": "(centres undefined)", "Potency": "inactive"}
{"molecule": "NC1=NC2C(N=C(Br)N2[C@@H]2O[C@H]3COP(=O)(O)O[C@@H]3[C@@H]2O)C(=O)N1", "note": "(some centres undefined)", "Potency": "inactive"}
{"molecule": "CCOC(=O)N1CCN(C(=O)CCn2c(=O)[nH]c3ccsc3c2=O)CC1", "Potency": "inactive"}
{"molecule": "CCOC(=O)Cc1ccc(NC(=O)N2CCOc3ccc(C)cc32)cc1", "Potency": "inconclusive [inhibitor, partial curve, poor fit]"}
{"molecule": "Cc1ccsc1C(=O)OCc1nc2ccccc2c(=O)[nH]1", "Potency": "inactive"}
{"molecule": "CC(C)c1ccc(NC(=O)C2CCCN(S(=O)(=O)c3cccc4cccnc34)C2)cc1", "note": "(centres undefined)", "Potency": "inconclusive [inhibitor, partial curve]"}
{"molecule": "Cc1nnc(N/N=C/c2ccco2)n1N", "Potency": "inconclusive [inhibitor, single point]"}
{"molecule": "COC(=O)C1=C(O)/C(=C\\c2ccc(CNS(=O)(=O)c3ccccc3)o2)N=C1C", "Potency": "inconclusive [inhibitor, single point]"}
{"molecule": "CCOC(=O)c1cc(S(=O)(=O)N2CCN(c3ccccc3)CC2)[nH]n1", "Potency": "inactive"}
{"molecule": "Cc1ccccc1-c1nsc(SCC(=O)Nc2ccc3c(c2)OCO3)n1", "Potency": "inconclusive [activator, partial curve, poor fit]"}
{"molecule": "Cc1nc(NC(=O)CSc2ccc(-c3nc4ccccc4[nH]3)cn2)sc1C", "Potency": "inconclusive [inhibitor, partial curve]"}
{"molecule": "O=c1c2ccccc2nc(COc2ccccc2)n1/N=C/c1ccc(O)c(O)c1", "Potency": "inactive"}
{"molecule": "Nc1nc(-c2ccccc2)c(N=Nc2cccc3ccccc23)s1", "Potency": "active: 17.8 µM"}
{"molecule": "CC(=O)c1ccc(NC(=O)CCSc2nc(-c3ccco3)cc(C(F)(F)F)n2)cc1", "Potency": "inconclusive [inhibitor, partial curve, poor fit]"}
{"molecule": "CCCCC1=CC2=C(c3ccco3)C(=O)C(C)(OC(=O)c3ccc(OC)cc3)C(=O)C2=CN1CC(C)C", "note": "(centres undefined)", "Potency": "inactive"}
{"molecule": "CN(C)CC(C(=O)c1ccccc1)c1ccccc1", "note": "(centres undefined)", "Potency": "inconclusive [activator, single point]"}
{"molecule": "COc1cc(C(=O)Nc2ccc3nc(SCc4ccc(C)cc4)sc3c2)cc(OC)c1OC", "Potency": "inconclusive [inhibitor, partial curve]"}
{"molecule": "S=C(NCCc1ccccc1)Nc1cnc2ccccc2c1", "Potency": "inconclusive [inhibitor, partial curve]"}
{"molecule": "COCCCNC(=O)c1c[nH]c2ccc(S(=O)(=O)N3CCC(C)CC3)cc2c1=O", "Potency": "inconclusive [inhibitor, single point]"}
{"molecule": "N#Cc1nc(-c2cccs2)oc1NCc1ccc(Cl)cc1", "Potency": "inconclusive [activator, partial curve, poor fit]"}
{"molecule": "CCN(c1ccccc1)S(=O)(=O)c1nnc(NC(=O)c2cccs2)s1", "Potency": "inconclusive [inhibitor, single point]"}
{"molecule": "CCOc1ccccc1OCCCCN1CCCC1", "Potency": "inactive"}
{"molecule": "CCn1c(CSc2nc3ccccc3s2)nnc1SCC(=O)c1ccc(Cl)cc1", "Potency": "inconclusive [inhibitor, single point]"}
{"molecule": "CCCC(=O)N1c2ccccc2C(N(C(C)=O)c2ccccc2)CC1C", "note": "(centres undefined)", "Potency": "inconclusive [inhibitor, full curve, poor fit]"}
{"molecule": "CCc1ccccc1N1C(=O)N(Cc2ccc(C#N)cc2)c2ccccc2S1(=O)=O", "Potency": "inconclusive [inhibitor, partial curve]"}
{"molecule": "O=C(N/N=C/c1cccc(O)c1)c1ccccc1O", "Potency": "inactive"}
{"molecule": "COc1ccc(-c2csc(N3CCN(C(=O)c4ccccc4)CC3)n2)cc1", "Potency": "inactive"}
{"molecule": "Cc1ccc(CNC(=O)c2ccc(Cn3c(=O)c4ccccc4n(CC(=O)Nc4ccc(C)cc4C)c3=O)cc2)cc1", "Potency": "inconclusive [inhibitor, partial curve]"}
{"molecule": "CC(=O)c1ccc(NC(=O)CSc2nnc3ccc(-c4ccc(Cl)cc4)nn23)cc1", "Potency": "inconclusive [inhibitor, single point]"}
{"molecule": "Cc1nn(Cc2ccc(F)cc2)c2sc(C(=O)Nc3ccc(N4CCOCC4)cc3N3CCOCC3)cc12", "Potency": "inconclusive [activator, partial curve, poor fit]"}
{"molecule": "CCOc1ccccc1NC(=O)C(=O)NCCc1sc(-c2cccc(F)c2)nc1C", "Potency": "inactive"}
{"molecule": "Fc1cc(F)cc(NC(=S)NN2CCOCC2)c1", "Potency": "inactive"}
{"molecule": "COc1ccc(CNC(=O)/C=C/c2ccc(S(=O)(=O)N3CCOCC3)cc2)cc1", "Potency": "inconclusive [inhibitor, single point]"}
{"molecule": "Cn1cccc1/C=C1\\SC(=S)N(NC(=O)c2ccccc2O)C1=O", "Potency": "inactive"}
{"molecule": "O=C(NCc1ccc2c(c1)CCN2C(=O)c1ccc(F)cc1)c1cc2ccccc2[nH]1", "Potency": "inconclusive [inhibitor, single point]"}
{"molecule": "Cc1ccc(N2CC3=C(C2=O)C(c2ccccc2)NC(=O)N3C)cc1", "note": "(centres undefined)", "Potency": "inconclusive [inhibitor, single point]"}
{"molecule": "O=C(CN1CCOCC1)Nc1ccc2c(c1)OCCO2", "Potency": "inactive"}
{"molecule": "Cc1cccc(C)c1OCCn1c(C2CC(=O)N(c3cccc(Cl)c3)C2)nc2ccccc21", "note": "(centres undefined)", "Potency": "inactive"}
{"molecule": "CC(=O)c1ccc(-n2nncc2-c2ccc([N+](=O)[O-])cc2)cc1", "Potency": "inactive"}
{"molecule": "CCC(=O)NC(=S)Nc1ccc(NC(=O)COc2ccc(Cl)cc2Cl)cc1", "Potency": "inactive"}
{"molecule": "COc1ccc(O[C@H]2C=C[C@@H](c3ccccc3)O[C@H]2COC(=O)CC/C(C)=N/O[C@@H]2O[C@H](COC(C)=O)[C@H](OC(C)=O)[C@H](OC(C)=O)[C@H]2OC(C)=O)cc1", "Potency": "inconclusive [inhibitor, partial curve, poor fit]"}
{"molecule": "O=C(Nc1nnc(COc2ccccc2F)s1)Nc1ccccc1F", "Potency": "active: 14.1 µM"}
{"molecule": "c1ccc2oc(SCc3nc4ccccc4s3)nc2c1", "Potency": "inconclusive [inhibitor, full curve, poor fit]"}
{"molecule": "CC1CCN(S(=O)(=O)c2cn(CC(=O)Nc3cccc(C(F)(F)F)c3)c(=O)c3ccccc23)CC1", "Potency": "inconclusive [inhibitor, full curve]"}
{"molecule": "COc1ccc(C(=O)Nc2ccc(S(=O)(=O)NC(C)(C)C)cc2)cc1[N+](=O)[O-]", "Potency": "inconclusive [inhibitor, single point]"}
{"molecule": "COc1ccccc1N(C)S(=O)(=O)c1ccc(C(=O)OCC(=O)c2c[nH]c3ccccc23)cc1", "Potency": "inconclusive [inhibitor, partial curve]"}
{"molecule": "COc1cccc(CSc2nc3ccccc3c3nc(CCn4c(C)nc5ccccc54)nn23)c1", "Potency": "inactive"}
{"molecule": "CNC(=O)CS(=O)(=O)CC(=O)Nc1cc(OCCOC)c(Cl)cc1Cl", "Potency": "inconclusive [inhibitor, single point]"}
{"molecule": "COc1ccc(Cl)cc1NC(=O)c1c(NCc2ccc(C)o2)sc2c1CCCCC2", "Potency": "inactive"}
{"molecule": "CCCCNc1nc(Oc2ccc(OCC)nn2)nc(N2CCOCC2)n1", "Potency": "inactive"}
{"molecule": "O=C(Nc1ccc(F)cc1)Nc1ccc(N2CCCC2)c(S(=O)(=O)Nc2ccccc2Cl)c1", "Potency": "inconclusive [inhibitor, partial curve]"}
{"molecule": "CC(=O)N1CCc2cc(Br)cc(S(=O)(=O)N3CCN(c4cccc(C(F)(F)F)c4)CC3)c21", "Potency": "inconclusive [inhibitor, partial curve]"}
{"molecule": "Cc1ccc2nsnc2c1NC(=O)COc1ccccc1F", "Potency": "inactive"}
{"molecule": "COCCNC(=O)Cn1cnc2sc(C)c(S(=O)(=O)N3CCC(C)CC3)c2c1=O", "Potency": "inconclusive [inhibitor, partial curve, poor fit]"}
{"molecule": "O=C(C1CC1)N1CCc2cc(Br)cc(S(=O)(=O)N3CCN(c4cccc(C(F)(F)F)c4)CC3)c21", "Potency": "inconclusive [inhibitor, partial curve, poor fit]"}
{"molecule": "Nc1nnc(CC(=O)N/N=C/c2cc([N+](=O)[O-])cc(Br)c2O)s1", "Potency": "inactive"}
{"molecule": "COC(=O)c1ccccc1NC(=O)c1ccc(COc2ccccc2Cl)o1", "Potency": "inconclusive [inhibitor, full curve]"}
{"molecule": "Clc1cc2cccnc2c2ccccc12", "Potency": "inactive"}
{"molecule": "O=C(c1cnn2ccccc12)N1CCc2ccccc21", "Potency": "inconclusive [inhibitor, single point]"}
{"molecule": "O=C(Nc1ccc(S(=O)(=O)N2CCOCC2)cc1)c1ccc(Cl)s1", "Potency": "inconclusive [inhibitor, partial curve, poor fit]"}
{"molecule": "COc1ccc(C(F)(F)F)cc1NC(=O)c1sc2nc(-c3cccs3)ccc2c1N", "Potency": "inconclusive [activator, full curve, poor fit]"}
{"molecule": "CC(=O)c1ccc(N2CCN(c3ncnc4c3c(-c3ccccc3)cn4-c3cccc(C)c3)CC2)cc1", "Potency": "inactive"}
{"molecule": "Cc1noc(/C=C/c2cccs2)c1S(=O)(=O)N1CCC(C(=O)Nc2ccc(F)c(Cl)c2)CC1", "Potency": "inconclusive [inhibitor, partial curve]"}
